Among the test systems are ACHN renal; SF-295 CNS; KM20L2 colon; RPMI-8226 leukemia; SF-539 CNS; LOX IMVI melanoma; OVCAR-5 ovarian; NCI-H226 lung; SNB-75 CNS; P388 leukemia; UO-31 renal; NCI/ADR-RES ovarian; MOLT-4 leukemia; SR leukemia; SNB-19 CNS; U251 CNS; 786-0 renal; HOP-62 NSCLC.
Assay in all cases: NCI tumour cell line growth inhibition, 48 h

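Exposure lasted 48 hours, with cells grown in 96-well plates and compounds tested at five concentrations. GI50 = concentration required for 50% inhibition of growth.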 A number of entries come with more than one value. The other results are left out here. An entry can have further records. Records of one sample usually come from different ranges of test concentrations, not given here; a value can be the end of its range.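 TGI marks complete inhibition of growth.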

In the case of `COc1cccc2c1C(=N)c1c(O)c3c(c(O)c1C2=O)C[C@@](O)(C(C)=O)C[C@@H]3OC1CC(N)C(O)C(C)O1` (stereo not given in full), the TGI in the assay with ACHN renal is 1.41 µM and 14.6 µM; in the assay on SF-295 CNS it was 0.541 nM, 1.84 µM, 821 nM, 11.5 µM; with KM20L2 colon, 0.65 nM, 5.15 µM, 6.51 µM; in the assay with RPMI-8226 leukemia it was 320 nM [1 test] and 1.05 µM [mean of 3 tests] and 3.75 µM [mean of 5 tests]; in the assay with SF-539 CNS it was 59.4 nM [1 test] and 1.13 µM [mean of 4 tests] and 1.56 µM [mean of 5 tests]; in the assay on LOX IMVI melanoma it was 9.15 nM, 1.35 µM, 1.92 µM. Also, the TGI in the assay on OVCAR-5 ovarian is 0.55 nM, 4.74 µM, 2.66 µM, 2.05 µM; with NCI-H226 lung it was 4.99, 712, 884, 125 nM; in the assay on SNB-75 CNS it was 79.8 nM [1 test] and 2.57 µM [mean of 3 tests] and 1.37 µM [mean of 5 tests]; in the assay on P388 leukemia it was 0.646 nM and 655 nM; with UO-31 renal, 9.32 nM, 30.8 µM, 3.15 µM; in the assay on NCI/ADR-RES ovarian, 0.424 nM and 21.8 µM. Besides, the TGI in the assay on MOLT-4 leukemia was 64.5 nM [mean of 4 tests] and 7.49 nM, 257 nM [mean of 5 tests]; in the assay with SR leukemia, 8.67 nM and 125 nM; in the assay on SNB-19 CNS, 9.75 nM, 4.31 µM, 3.23 µM, 2.17 µM; with U251 CNS, 0.372 nM, 8.45 nM, 2.77 µM, 675 nM, 114 nM; in the assay with 786-0 renal, 545 nM and 10.2 µM; with HOP-62 NSCLC, 634 nM, 338 nM, 10.9 µM.
For the molecule `C[CH2][Ge]1([CH2]C)[CH2]CC2(CCN(CCCN(C)C)C2)C[CH2]1`, in the assay on LOX IMVI melanoma, the GI50 is 1.83 µM [mean of 3 tests] and 38.1 nM [mean of 4 tests]; the TGI was 3.45 µM [mean of 3 tests] and 316 nM [mean of 4 tests].

The values are drawn from PubChem BioAssay (NCI).
